{"source": "a collection of fitness landscapes (doi:10.1126/science.1257360)", "parents": {"B1": {"name": "PhoQ; a variant is named by its letters at X, in order, P23837 (parent)", "chain": "MKKLLRLFFPLSLRVRFLLATAAVVLVLSLAYGMVALIGYSVSFDKTTFRLLRGESNLFYTLAKWENNKLHVELPENIDKQSPTMTLIYDENGQLLWAQRDVPWLMKMIQPDWLKSNGFHEIEADVNDTSLLLSGDHSIQQQLQEVREDDDDAEMTHSVAVNVYPATSRMPKLTIVVVDTIPVELKSSYMVWSWFIYVLSANLLLVIPLLWVAAWWSLRPIEALAKEVRELEEHNRELLNPATTRELTSLVRNLNRLLKSERERYDKYRTTLTDLTHSLKTPLXXLQXXLRSLRSEKMSVSDAEPVMLEQISRISQQIGYYLHRASMRGGTLLSRELHPVAPLLDNLTSALNKVYQRKGVNISLDISPEISFVGEQNDFVEVMGNVLDNACKYCLEFVEISARQTDEHLYIVVEDDGPGIPLSKREVIFDRGQRVDTLRPGQGVGLAVAREITEQYEGKIVAGESMLGGARMEVIFGRQHSAPKDE"}}, "note": "This is one part of the list."}
{"variants_of": "B1", "test": "enrichment ratio after two sorts for PhoP signalling (ratio (wild type AVST 3.29)); higher = more functional", "conditions": "with PhoP (E. coli)"}
{"variant": "NQLL", "enrichment ratio": "≤ 0.25"}
{"variant": "YFTF", "enrichment ratio": "≤ 0.25"}
{"variant": "WRVV", "enrichment ratio": "≤ 0.25"}
{"variant": "HDHL", "enrichment ratio": "≤ 0.25"}
{"variant": "GIHA", "enrichment ratio": "≤ 0.25"}
{"variant": "HPND", "enrichment ratio": "≤ 0.25"}
{"variant": "HADS", "enrichment ratio": "≤ 0.25"}
{"variant": "HGHK", "enrichment ratio": "≤ 0.25"}
{"variant": "DSVM", "enrichment ratio": "≤ 0.25"}
{"variant": "DGSK", "enrichment ratio": "≤ 0.25"}
{"variant": "YQLH", "enrichment ratio": 0.516}
{"variant": "VEWH", "enrichment ratio": 13.7}
{"variant": "LGKL", "enrichment ratio": "≤ 0.25"}
{"variant": "LSHH", "enrichment ratio": "≤ 0.25"}
{"variant": "IAAV", "enrichment ratio": "≤ 0.25"}
{"variant": "TPIE", "enrichment ratio": "≤ 0.25"}
{"variant": "VLSW", "enrichment ratio": "≤ 0.25"}
{"variant": "GCSL", "enrichment ratio": 3.5}
{"variant": "FLKG", "enrichment ratio": 0.285}
{"variant": "LTER", "enrichment ratio": "≤ 0.25"}
{"variant": "YTLR", "enrichment ratio": "≤ 0.25"}
{"variant": "VQYG", "enrichment ratio": "≤ 0.25"}
{"variant": "MTQF", "enrichment ratio": "≤ 0.25"}
{"variant": "MGKL", "enrichment ratio": "≤ 0.25"}
{"variant": "WCTP", "enrichment ratio": "≤ 0.25"}
{"variant": "NHVI", "enrichment ratio": "≤ 0.25"}
{"variant": "VQHW", "enrichment ratio": "≤ 0.25"}
{"variant": "MECN", "enrichment ratio": 12.6}
{"variant": "DMDP", "enrichment ratio": "≤ 0.25"}
{"variant": "PHPY", "enrichment ratio": "≤ 0.25"}
{"variant": "LFPK", "enrichment ratio": "≤ 0.25"}
{"variant": "PCML", "enrichment ratio": "≤ 0.25"}
{"variant": "RINY", "enrichment ratio": "≤ 0.25"}
{"variant": "AFHL", "enrichment ratio": "≤ 0.25"}
{"variant": "TIPM", "enrichment ratio": "≤ 0.25"}
{"variant": "RSLR", "enrichment ratio": "≤ 0.25"}
{"variant": "FVHV", "enrichment ratio": 12.9}
{"variant": "SFKE", "enrichment ratio": "≤ 0.25"}
{"variant": "MPEM", "enrichment ratio": "≤ 0.25"}
{"variant": "YPVG", "enrichment ratio": "≤ 0.25"}
{"variant": "QSPM", "enrichment ratio": "≤ 0.25"}
{"variant": "AMVE", "enrichment ratio": "≤ 0.25"}
{"variant": "WTGN", "enrichment ratio": "≤ 0.25"}
{"variant": "ASYE", "enrichment ratio": 0.824}
{"variant": "LHYY", "enrichment ratio": "≤ 0.25"}
{"variant": "HRGG", "enrichment ratio": "≤ 0.25"}
{"variant": "TIDD", "enrichment ratio": "≤ 0.25"}
{"variant": "WDVI", "enrichment ratio": "≤ 0.25"}
{"variant": "NNRH", "enrichment ratio": "≤ 0.25"}
{"variant": "PTNY", "enrichment ratio": "≤ 0.25"}
{"variant": "ESET", "enrichment ratio": "≤ 0.25"}
{"variant": "FRSY", "enrichment ratio": "≤ 0.25"}
{"variant": "EGWP", "enrichment ratio": "≤ 0.25"}
{"variant": "NFTQ", "enrichment ratio": "≤ 0.25"}
{"variant": "VGCP", "enrichment ratio": "≤ 0.25"}
{"variant": "PPGS", "enrichment ratio": "≤ 0.25"}
{"variant": "TICH", "enrichment ratio": 0.547}
{"variant": "STNR", "enrichment ratio": 0.43}
{"variant": "GAPM", "enrichment ratio": "≤ 0.25"}
{"variant": "QECG", "enrichment ratio": 23}
{"variant": "MCAQ", "enrichment ratio": "≤ 0.25"}
{"variant": "KMTQ", "enrichment ratio": "≤ 0.25"}
{"variant": "HDVQ", "enrichment ratio": "≤ 0.25"}
{"variant": "GVIK", "enrichment ratio": "≤ 0.25"}
{"variant": "LKFA", "enrichment ratio": "≤ 0.25"}
{"variant": "MQAQ", "enrichment ratio": "≤ 0.25"}
{"variant": "QACR", "enrichment ratio": "≤ 0.25"}
{"variant": "SPRL", "enrichment ratio": "≤ 0.25"}
{"variant": "ELVS", "enrichment ratio": "≤ 0.25"}
{"variant": "KPLM", "enrichment ratio": "≤ 0.25"}
{"variant": "RGAK", "enrichment ratio": "≤ 0.25"}
{"variant": "DAYC", "enrichment ratio": "≤ 0.25"}
{"variant": "LYVC", "enrichment ratio": "≤ 0.25"}
{"variant": "DKYF", "enrichment ratio": "≤ 0.25"}
{"variant": "KEFH", "enrichment ratio": "≤ 0.25"}
{"variant": "PLDM", "enrichment ratio": "≤ 0.25"}
